Measured values: PubChem BioAssay AID686971 (National Center for Advancing Translational Sciences (NCATS), 2013)
In all, about 360,000 compounds went through this assay and about 7,500 (2.1%) were called active. The shares of active, inactive and inconclusive entries below differ from those in the screen. Calls follow the shape of the dose curve; as a rule, active = well fitted cell-killing curve with a large enough effect; inconclusive = small, poorly fitted or top-dose-only effect, or effect the other way, or another doubt; inactive = no such curve, though single readings can be large or run the other way. Potencies of inconclusive entries are left out as doubtful fits.
Potency is read from the fitted curve at half-maximal effect; tags tell the direction and shape of the fitted curve.

Test: qHTS for induction of synthetic lethality in tumor cells producing 2HG: qHTS for the HT-1080-IDH1KD cell line;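 as to activity, negative = toxicity: 0% = DMSO wells and -100% = cell-free medium wells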
Conditions: HT-1080 IDH1 knockdown viability, ATP luminescence, 48 h; activity, negative = toxicity: at 46.1 µM (top of the series) unless noted
Method in brief: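 Luminescent ATP read-out (CellTiter-Glo, 10 min at room temperature) after 48 h compound exposure at 37 °C gave viability of IDH1-knockdown HT-1080 cells. Activity was normalised to DMSO and cell-free wells, then fitted as concentration-response curves.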
With `CC(=O)n1cc([C@H]2C=C(C(=O)Nc3ccccc3)O[C@@H](OCc3ccc(CO)cc3)C2)c2ccccc21` the Potency was “inactive”. In the case of `Cc1ccc(NC(=O)c2ccc([N+](=O)[O-])s2)cc1S(=O)(=O)N1CCOCC1`, the Potency is reported as active: 20.6 µM. For `CC(=O)Oc1c(Br)cc(N(C(C)=O)S(=O)(=O)c2ccccc2)c2ccccc12`, the Potency was inconclusive [cytotoxic, single point]. For `COc1ccc(C(=O)N/N=C(\c2ccccc2)c2ccccn2)cc1`, the Potency was inconclusive [cytotoxic, full curve]. With `CCN1CCN(c2cc(C)c3cc(NC(=S)NCCN(C)C)ccc3n2)CC1` the activity, negative = toxicity was inconclusive: -30.2% [cytotoxic]. In the case of `Cc1csc(NC(=O)Cc2coc3cc(C)c(C(C)C)cc23)n1`, the Potency is reported as active: 23.1 µM. In the case of `O=c1ccc(Oc2nc(N3CCCCC3)nc(N3CCCCC3)n2)n[nH]1`, the Potency is reported as inconclusive [cytotoxic, partial curve]. In the case of `COc1ccccc1N1CCN(C(=O)c2oc3ccc(Br)cc3c2C)CC1`, the Potency is reported as inconclusive [cytotoxic, partial curve]. In the case of `Oc1ccc(/C=N/Nc2nccnc2Cl)c(O)c1`, the Potency is reported as inconclusive [cytotoxic, full curve]. In the case of `COCC(=O)N1CCCC(C(=O)c2ccc(-c3ccccc3)cc2)C1` (stereo unspecified), the Potency is reported as “inactive”. With `CCOC(=O)C1=C(C)Nc2ncnn2C1/C=C/c1ccccc1` (stereo unspecified) the Potency was inconclusive [cytotoxic, single point]. With `Nc1ccccc1-c1ccc([N+](=O)[O-])cc1` the Potency was inconclusive [cytotoxic, full curve]. With `Cc1cc(C)n2nc(C(=O)OCC(=O)N(Cc3ccccc3)C(C)C)nc2n1` the Potency was “inactive”. With `CCN(CC)S(=O)(=O)c1cccc(C(=O)OCC(=O)NCCN2C(=O)CSC2=O)c1` the Potency was “inactive”. For `O=C(/C=C/c1ccc(OCc2ccccc2)c(OCc2ccccc2)c1)c1cccnc1`, the Potency was inconclusive [cytotoxic, single point]. With `COc1ccc(NC(=O)CSc2nncc3ccccc23)cc1` the Potency was inconclusive [cytotoxic, single point]. With `Cn1nnnc1N=N/C(=N/Nc1ccccc1)c1ccccc1` the Potency was active: 7.31 µM. With `CC(C)(C)C(=O)N1CCN(c2ccc(NC(=O)c3ccc([N+](=O)[O-])o3)cc2)CC1` the Potency was active: 5.17 µM. For `Cc1ccc(NP(=O)(Nc2ccc(C)cc2)Nc2ccc(C)cc2)cc1`, the Potency was “inactive”. For `COc1ccc(CNC(=O)C(C)n2ccc3cc(S(=O)(=O)N4CCCCCC4)ccc32)cc1` (stereo unspecified), the Potency was “inactive”. With `COC(=O)c1ccc(Oc2cc(C)nc(-n3nc(C)cc3C)n2)cc1` the Potency was active: 1.12 µM.
